Results: the supplement of paper PMC4604168 (melanoma cell lines)
This is one part of the list. Many values rest on one well or one pass, so single values are uncertain.

Each compound was assayed on UACC62 (assay: cell count relative to DMSO control; melanoma cells; higher = more viable cells). Settings: library dose: low library concentration; 72 h.
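Note: cell number obtained by counting DAPI-stained nuclei in high-throughput microscope images with image analysis software, screen run in 1,536-well plates.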

| Structure (SMILES) | cell count |
| --- | --- |
| CC(=O)c1c(C)c2cnc(Nc3ccc(N4CCNCC4)cn3)nc2n(C2CCCC2)c1=O [palbociclib] + CC(C)(C)c1cnc(CSc2cnc(NC(=O)C3CCNCC3)s2)o1 [SNS-032] (first compound 0.04 µM, partner dose 0.01 µM) | 74.9% |
| CC(=O)O[C@@]12CO[C@@H]1C[C@H](O)[C@@]1(C)C(=O)[C@H](O)C3=C(C)[C@@H](OC(=O)[C@H](O)[C@@H](NC(=O)OC(C)(C)C)c4ccccc4)C[C@@](O)([C@@H](OC(=O)c4ccccc4)[C@H]21)C3(C)C [Docetaxel] + CO[C@@H]1[C@H](N(C)C(=O)c2ccccc2)C[C@H]2O[C@]1(C)n1c3ccccc3c3c4c(c5c6ccccc6n2c5c31)C(=O)NC4 [Midostaurin] (first compound 0.0001 µM, partner dose 0.08 µM) | 43.2% |
| Nc1nc(F)nc2c1ncn2[C@@H]1O[C@H](CO)[C@@H](O)[C@@H]1O [fludarabine] + COc1ccc2c(c1)CCC1C2CCC2(C)C(NCCCCCCN3C(=O)C=CC3=O)CCC12 [U73122] (first compound 0.2 µM, partner dose 0.4 µM) | 96.9% |
| CC(=O)c1c(C)c2cnc(Nc3ccc(N4CCNCC4)cn3)nc2n(C2CCCC2)c1=O [palbociclib] + Cn1c(Nc2ccc(C(F)(F)F)cc2)nc2cc(Oc3ccnc(-c4ncc(C(F)(F)F)[nH]4)c3)ccc21 [CHIR265] (first compound 0.04 µM, partner dose 0.08 µM) | 38.9% |
| Nc1ccn([C@@H]2O[C@H](CO)[C@@H](O)C2(F)F)c(=O)n1 [gemcitabine] + O=c1cc(-c2cccc3c2Sc2ccccc2S3)oc(N2CCOCC2)c1 [KU55933] (first compound 0.0004 µM, partner dose 1 µM) | 86.1% |
| CC(=O)c1c(C)c2cnc(Nc3ccc(N4CCNCC4)cn3)nc2n(C2CCCC2)c1=O [palbociclib] + CO[C@@H]1[C@H](N(C)C(=O)c2ccccc2)C[C@H]2O[C@]1(C)n1c3ccccc3c3c4c(c5c6ccccc6n2c5c31)C(=O)NC4 [Midostaurin] (first compound 0.04 µM, partner dose 0.08 µM) | 72.1% |
| Nc1ncn([C@H]2C[C@H](O)[C@@H](CO)O2)c(=O)n1 [decitabine] + CO[C@@H]1[C@H](N(C)C(=O)c2ccccc2)C[C@H]2O[C@]1(C)n1c3ccccc3c3c4c(c5c6ccccc6n2c5c31)C(=O)NC4 [Midostaurin] (first compound 0.1 µM, partner dose 0.08 µM) | 78.7% |
| CC(=O)c1c(C)c2cnc(Nc3ccc(N4CCNCC4)cn3)nc2n(C2CCCC2)c1=O [palbociclib] + O=C(O)C(=O)Nc1sc2c(c1C(=O)O)CCNC2 [TCS401] (first compound 0.04 µM, partner dose 1.66667 µM) | 78.8% |
| Nc1nc(F)nc2c1ncn2[C@@H]1O[C@H](CO)[C@@H](O)[C@@H]1O [fludarabine] + CN(C)S(=O)(=O)c1ccc2c(c1)/C(=C/c1cc3c([nH]1)CCCC3)C(=O)N2 [SU6656] (first compound 0.2 µM, partner dose 0.4 µM) | 90.5% |
| Nc1nc(F)nc2c1ncn2[C@@H]1O[C@H](CO)[C@@H](O)[C@@H]1O [fludarabine] + Cc1ccc(NC(=O)c2cccc(N(C)C)c2)cc1NC(=O)c1ccc(O)cc1 [ZM336372] (first compound 0.2 µM, partner dose 2 µM) | 119% |
| Nc1ncn([C@H]2C[C@H](O)[C@@H](CO)O2)c(=O)n1 [decitabine] + c1cc(-c2cnn3cc(-c4ccc(OCCN5CCCCC5)cc4)cnc23)ccn1 [Dorsomorphin] (first compound 0.1 µM, partner dose 0.4 µM) | 87.8% |
| Nc1nc(F)nc2c1ncn2[C@@H]1O[C@H](CO)[C@@H](O)[C@@H]1O [fludarabine] + COc1cc2ncnc(Nc3ccc(Oc4ccccc4)cc3)c2cc1OC [SrcI1] (first compound 0.2 µM, partner dose 2 µM) | 98.4% |
| Nc1ccn([C@@H]2O[C@H](CO)[C@@H](O)C2(F)F)c(=O)n1 [gemcitabine] + O=C(Nc1cccc(Cl)c1)Nc1ncc(CCNc2ncnc3ccsc23)s1 [SNS314] (first compound 0.0004 µM, partner dose 0.0008 µM) | 96.2% |
| Nc1nc(F)nc2c1ncn2[C@@H]1O[C@H](CO)[C@@H](O)[C@@H]1O [fludarabine] + C#Cc1cccc(Nc2ncnc3cc(OCCOC)c(OCCOC)cc23)c1 [erlotinib] (first compound 0.2 µM, partner dose 0.8 µM) | 80.7% |
| Nc1nc(F)nc2c1ncn2[C@@H]1O[C@H](CO)[C@@H](O)[C@@H]1O [fludarabine] + COc1cc(N2CCC(N3CCN(C)CC3)CC2)ccc1Nc1ncc(Cl)c(Nc2ccccc2S(=O)(=O)C(C)C)n1 [NVP-TAE684] (first compound 0.2 µM, partner dose 0.08 µM) | 87.8% |
| CC(=O)c1c(C)c2cnc(Nc3ccc(N4CCNCC4)cn3)nc2n(C2CCCC2)c1=O [palbociclib] + C=CCn1c(=O)c2cnc(Nc3ccc(N4CCN(C)CC4)cc3)nc2n1-c1cccc(C(C)(C)O)n1 [MK1775] (first compound 0.04 µM, partner dose 0.02 µM) | 69.1% |
